According to the supplement of paper PMC3334620:
The full ranking holds about 33,000 sequences; the median of “E-score (-0.5 to 0.5)” is about -0.056, and the highest 2% start at about 0.38. The list shows a part of the results.

Target: Stb4 (UniProt P50104)
Assay: PBM E-score (8-mer binding enrichment) (E-score (-0.5 to 0.5)); higher = stronger / more preferred TF binding; most listed sequences are background and not binding sites
Conditions: protein concentration: 200 nM; construct: GST-DNA-binding domain
Procedure: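 Universal 'all 10-mer' protein binding microarrays (Agilent AMADID 015681) probed with GST-tagged S. cerevisiae TFs (full-length or DBD) made by in vitro transcription/translation (PURExpress), about 100-200 nM. Bound TF was detected with fluorescent anti-GST. Each ungapped 8-mer (which stands for itself and its reverse complement) is scored by the PBM enrichment score (E-score), a modified Wilcoxon-Mann-Whitney statistic from -0.5 to +0.5, computed with the Universal PBM Analysis Suite. Scale: above 0.35 generally sequence-specific binding.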

Sequence | PBM E-score
GCTCACGA | -0.228
GATTGTCC | 0.181
ATGCTGTC | -0.134
ATGCGTGA | -0.149
AACCAAGC | -0.109
AACCACGC | -0.11
ACAGTTAC | -0.11
CGGTCGGA | 0.388
ACAATATC | 0.0526
CTATGGTA | -0.0297
ATGCTACA | -0.163
CCTGCACG | -0.169
AAGGTAGC | -0.234
CGTAAGAA | 0.0311
CTATTGAC | -0.0362
AGAGCTGC | -0.127
AGTATAGC | -0.0774
GATAATCC | 0.19
AGCGTTCG | -0.00865
ATAGGGCG | -0.0285
ATAAGCCA | -0.169
CGCCCACA | 0.0446

Sequence | PBM E-score
ACAGGTGG | -0.226
CTGCTCGA | -0.187
AAACTCGA | -0.0699
CAGAAGAC | -0.172
CGCGTGCC | 0.122
AGGTCCAG | -0.216
ACCATATG | -0.311
TAGCCCCA | -0.101
ACACATGG | -0.187
CCCCCTCC | -0.107
CTAAGGAA | -0.0293
GTGAGGCA | -0.0459
AAGTCCCT | -0.294
GGAGAAGA | -0.0192
TCCCCTCA | -0.106
CTTTGCTA | -0.167
GCGTTTAC | -0.0125
CGCCGTAA | 0.123
ACCATGTA | -0.148
ATCACCGG | 0.137
ATTCCGTA | 0.265
ATTTGGTG | -0.194

Sequence | PBM E-score
CCGCATAG | 0.0776
GCTTAAAC | -0.188
CTCGCCAA | -0.0864
AGGAGCAG | -0.137
CATTACTC | -0.00902
AAACCATT | -0.0827
GTAATGAA | -0.177
ATGTGCCC | -0.048
GAGAACGC | -0.115
CCTGAGTC | 0.133
ATATGACC | -0.13
CTTCATGA | -0.0961
ACGCACCC | -0.00669
ATCAGAAT | -0.0528
CTCTGTAC | -0.241
CTACGTTC | -0.0027
AGCCCGCC | 0.0602
GAACGCTC | -0.261
AGCAATCA | -0.213
GAAATACC | 0.133
GAAGCCCC | 0.18
AGGAGAGG | -0.405

Sequence | PBM E-score
AGGCAGGG | -0.246
ATAGGAAT | -0.164
CAGCGAGC | 0.00924
CAGCATGG | -0.0225
CGAACGCG | 0.234
TCCCTCGA | -0.198
CGTTTCGC | 0.0985
GCAACTAA | 0.0277
GTCGTCTA | -0.0927
AGGCCTCA | -0.274
CAAGAAGC | -0.155
AGTAAACA | -0.0848
CCTTCATA | -0.144
GCCCCGCC | 0.277
ACTAACGA | -0.242
CGTCGTGA | -0.0507
AGGGGACT | -0.0531
GAGTTAGC | -0.0388
ACCTTTGG | -0.144
GTGCGCAA | -0.1
ATTTTTGG | -0.112
CACACCCA | 0.00395

Sequence | PBM E-score
ACACTAAC | -0.0185
ACTAGTGC | -0.127
CGATAGAC | -0.064
GTCTCCAA | -0.156
GTACTAAA | -0.137
CCTCCTAC | -0.0946
CCGACGTA | 0.31
CACCCGGA | 0.358
CCCCGGAC | 0.183
CAACGGAG | 0.103
CTTACAGC | -0.134
CCACTCAG | -0.212
CTTACTAC | -0.0203
ATCGCCCC | -0.128
CAGGACTG | -0.28
GGAGGGAC | 0.0519
AACCCGCC | 0.199
GTGATGTA | -0.0453
GGGAGACC | 0.0202
GTACAGAA | 0.0798
CTCACGCC | 0.0107
CACACTGA | -0.338
